Measured values from article PMC4336329 (PLoS ONE, 2015).
The whole screen tested about 310,000 compounds, of which about 2,200 (0.71%) showed an effect of 50% or more. Effects have a minus sign here. Some of the results follow.

target: human ether-à-go-go-related gene (hERG) potassium channel (human, UniProt Q12809); assay: primary screen, population patch clamp on CHO cells stably expressing hERG
Sequence (Q12809 whole entry, looked up): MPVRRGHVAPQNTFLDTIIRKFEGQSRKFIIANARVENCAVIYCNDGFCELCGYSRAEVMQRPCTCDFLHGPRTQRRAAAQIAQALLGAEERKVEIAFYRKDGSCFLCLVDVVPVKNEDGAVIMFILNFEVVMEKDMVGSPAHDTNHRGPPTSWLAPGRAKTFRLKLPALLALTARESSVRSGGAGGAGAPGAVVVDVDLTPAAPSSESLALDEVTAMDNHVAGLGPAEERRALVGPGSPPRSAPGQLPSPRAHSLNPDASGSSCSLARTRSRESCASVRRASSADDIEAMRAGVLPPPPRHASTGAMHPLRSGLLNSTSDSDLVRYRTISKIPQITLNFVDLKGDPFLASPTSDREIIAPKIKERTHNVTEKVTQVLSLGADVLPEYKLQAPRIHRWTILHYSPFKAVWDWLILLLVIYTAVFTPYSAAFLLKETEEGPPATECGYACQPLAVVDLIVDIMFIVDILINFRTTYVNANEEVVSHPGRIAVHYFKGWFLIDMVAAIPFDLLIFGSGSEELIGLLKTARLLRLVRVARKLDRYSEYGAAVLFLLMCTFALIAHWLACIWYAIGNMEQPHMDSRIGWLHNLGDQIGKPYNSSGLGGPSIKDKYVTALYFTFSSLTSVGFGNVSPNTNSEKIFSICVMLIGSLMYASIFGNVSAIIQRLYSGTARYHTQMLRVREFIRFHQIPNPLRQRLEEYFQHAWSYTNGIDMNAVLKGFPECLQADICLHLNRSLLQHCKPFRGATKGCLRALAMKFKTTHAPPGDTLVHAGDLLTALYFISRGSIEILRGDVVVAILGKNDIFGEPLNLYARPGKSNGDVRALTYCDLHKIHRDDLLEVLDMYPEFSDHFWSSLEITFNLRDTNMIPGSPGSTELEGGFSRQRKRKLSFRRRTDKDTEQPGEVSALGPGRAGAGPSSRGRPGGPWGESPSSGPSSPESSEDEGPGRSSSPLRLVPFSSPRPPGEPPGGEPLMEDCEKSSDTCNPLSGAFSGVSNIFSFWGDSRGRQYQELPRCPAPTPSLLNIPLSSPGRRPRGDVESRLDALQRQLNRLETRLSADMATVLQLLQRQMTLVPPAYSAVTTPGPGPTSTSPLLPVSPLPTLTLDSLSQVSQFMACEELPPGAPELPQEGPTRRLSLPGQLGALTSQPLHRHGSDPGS

SMILES	hERG current change (%, negative = inhibition) at 1uM [%]
Cc1ccc(NC(=O)CSc2nnc(C)n2CC2CCCO2)cc1 (stereo not drawn)	7.8
O=C(CSc1nc(C2CC2)nc2ccccc12)N1CCCCC1	5.07
Cc1cc(C)n2nc(SCC(=O)Nc3ccc(O)cc3)nc2n1	7.41
COc1cccc(NC(=O)CSc2nnc(CNC(=O)c3ccccc3)n2C)c1	-3.55
CCCn1c2c(c(O)c(C(=O)Nc3ncccc3O)c1=O)CCCC2	12.5
CC(=O)c1ccc(S(=O)(=O)NCCCC(=O)NCCc2ccccn2)cc1	9.55
CSCCC(N=Cc1c(O)n(-c2ccc(Br)cc2)c(=O)[nH]c1=O)C(=O)OC(C)(C)C (stereo not drawn)	11.2
O=S(=O)(Nc1ccccc1N1CCCCC1)c1ccc(F)cc1F	15.6
N#Cc1nc(-c2ccco2)oc1N1CCN(c2cccc(Cl)c2)CC1	5.18
O=C(CNC(=O)c1ccco1)OCC(=O)c1cccc2ccccc12	7.44
CCN1CCN(c2cc(C)c3cc(NC(=O)CCC(=O)N4CCN(c5ccccc5)CC4)ccc3n2)CC1	19.3
CCNC(=O)Nc1ccc(OC)cc1OC	1.64
COc1cc(/C=N/Nc2ccccc2[N+](=O)[O-])ccc1OC(=O)c1ccccc1F	-0.0539
Cc1cc(C)n(CC(=O)N2N=C(C(F)F)CC2(O)C(F)F)n1 (stereo not drawn)	13.7
O=C(NCc1ccccc1)NC1CC2CCC(C1)N2Cc1ccco1 (stereo not drawn)	1.87
COc1ccc(C(=O)Nc2c(C)csc2C(=O)O)cc1	6.59
O=C(CSc1ccccc1)NC1CCCCCCC1	10.4
Cc1ccc(N2CCN(C(=S)Nc3ccccc3)CC2)cc1	15.8
CCN(CC)CCNC(=O)c1cn(-c2ccccc2)nc1-c1cccs1.Cl	-32.5
COc1ccc(CCN(C)C(=O)CSc2nc3ncc(Cl)cc3[nH]2)cc1OC	6.89
CC(=O)Nc1cccc(OCCCNC(=O)c2ccc(C(C)(C)C)cc2)c1	12.2
Cc1cccnc1NC(=S)Nc1ccc(Br)cc1Cl	10.4

SMILES	hERG current change (%, negative = inhibition) at 1uM [%]
O=C1C2C(c3ccccc3)C=CC(c3ccccc3)C2C(=O)N1c1ccccn1 (stereo not drawn)	11.1
O=C(NC1(C(=O)NC2CCCCC2)CCCCC1)c1ccc2c(c1)OCO2	12.8
Cc1cc2nc(-c3ccc4c(c3)CCC4)ccn2n1	7.6
COc1cccc(CNC(=O)CCC(=O)n2ncc3cc(C)ccc32)c1OC	9.76
CC(=O)c1cccc(NC(=O)c2ccc(C)c(S(=O)(=O)N3CCOCC3)c2)c1	9.19
O=C(c1cccc([N+](=O)[O-])c1)N1CCN(c2cccc(Cl)c2)CC1	5.93
N#CCCn1cc(C(=O)N2CCCCC2)c(-c2ccc([N+](=O)[O-])cc2)n1	0.956
COc1ccc(S(=O)(=O)N2Cc3ccccc3CC2C(=O)Nc2ccc(O)cc2)cc1OC (stereo not drawn)	-0.93
Cc1ccccc1CSCCNC(=O)c1ccc(Cl)c(S(=O)(=O)N2CCOCC2)c1	-3.01
CC1(C)C2CCC1(CS(=O)(=O)NCCc1c[nH]c3ccccc13)C(=O)C2 (stereo not drawn)	-0.152
CC(Sc1nnc(CN2CCCC2)n1Cc1ccccc1)C(=O)Nc1ccc(F)cc1 (stereo not drawn)	-9.37
Cn1nccc1C(=O)Nc1ccn(C23CC4CC(CC(C4)C2)C3)n1	-5.75
CCN(CC(=O)Nc1cc(S(=O)(=O)N2CCOCC2)ccc1C)Cc1ccccc1	6.88
Cn1c(NCc2ccccc2Cl)nc2ccccc21	2.08
COc1ccc(N2Cc3ccccc3C2=O)cc1	15.4
Cc1ccc(C)c(S(=O)(=O)Nc2nc3ccc(S(N)(=O)=O)cc3s2)c1	15.7
CC(=O)Nc1cc(C(=O)N2CCN(C)CC2)ccc1Sc1ccc(C)cc1	-0.653
CCN1CCn2c1nc(N1CCOCC1)nc2=O	12.3
CCN(C(=O)Cn1nnc(-c2ccccc2)n1)C1CCS(=O)(=O)C1 (stereo not drawn)	12.8
CCNc1ccc(C(=O)OCC(=O)NC(C)c2ccccc2)cc1[N+](=O)[O-] (stereo not drawn)	5.32
CCOCCCNC(=S)N1CCN(c2nc(-c3ccccc3)cs2)CC1	9.5
Cc1ccc(N2CC(C(=O)Nc3nccs3)CC2=O)cc1Cl (stereo not drawn)	6.52

SMILES	hERG current change (%, negative = inhibition) at 1uM [%]
O=C(Cc1coc2cc3c(cc12)CCC3)NCC1(N2CCCCC2)CCCCC1	-59.2
Cc1nc2ncc(Br)cc2[nH]1	7.94
CCC(=O)NCCCc1nc(-c2ccccc2)no1	10.6
O=C(Nc1ccccc1)OCCNC(=O)c1cccc(Cl)c1	12.1
O=C(CCCn1c(=O)[nH]c2ccccc2c1=O)NCCSCc1ccccc1	8.61
Cc1ccc(S(=O)(=O)N[C@@H](C)C(=O)N2CCC(C(=O)N3CCC[C@H]3C(=O)O)CC2)cc1	12.9
CCc1c(C)c(C#N)c2nc3ccccc3n2c1NCCN(C)C	1.43
COCCNC(=O)c1nc2c(nnn2Cc2cc(C)ccc2C)c(=O)[nH]1	15
COc1cccc(NC(=O)CN(C)C(=O)CCCc2c[nH]c3ccccc23)c1	9.56
CCN1C(=O)C(CC(=O)Nc2ccc(Br)cc2)N(CCCc2ccccc2)C1=S (stereo not drawn)	16.2
COc1ccc(OC)c(N(CC(=O)Nc2ccccc2F)S(=O)(=O)c2ccccc2)c1	4.9
O=S(=O)(NC(=NCc1ccccc1)c1ccccc1F)c1ccccc1	4.29
CCOC(=O)c1c(N2C(=O)Nc3ccccc3N2O)n[nH]c1-c1cccc(OC)c1	10
CCOc1ccccc1N(C(=O)c1snc(C(N)=O)c1N)C(C(=O)NC1CCCC1)c1ccco1 (stereo not drawn)	-8.25
O=C(CCc1ccccc1)Nc1nc2nc(-c3ccccc3)cc(=O)n2[nH]1	11.9
O=C1N/C(=C/c2ccc(N3CCOCC3)o2)C(=O)N1c1cccc(Cl)c1	6.87
O=C(NCC1CCCCC1)c1cc([N+](=O)[O-])ccc1N1CCOCC1	-1.47
O=S(=O)(c1cccc(COc2ccc(Cl)cc2Cl)c1)N1CCOCC1	5.31
COc1ccccc1CNC(=O)c1cc(S(=O)(=O)N2CCOCC2)cn1C	4.84
O=C(NCC1CCCN1S(=O)(=O)c1cccs1)c1ccc([N+](=O)[O-])cc1 (stereo not drawn)	-0.873
Cc1ccc(N2CC(NC(=O)N3CCN(C(=O)c4ccco4)CC3)CC2=O)cc1 (stereo not drawn)	-5.94
COC(=O)c1ccc(CSc2nnc(CS(=O)Cc3ccc(Br)cc3)n2-c2ccccc2)cc1 (stereo not drawn)	4.22

SMILES	hERG current change (%, negative = inhibition) at 1uM [%]
CCN(Cc1ccccc1)C(=O)c1cc(S(=O)(=O)N2CCOCC2)cn1C	16.4
CC1CN(c2ncnc3c2cnn3-c2ccc(Cl)cc2)CC(C)O1 (stereo not drawn)	3.56
COc1ccc(N2C(=O)NC(NC(=O)c3cccnc3)(C(F)(F)F)C2=O)cc1 (stereo not drawn)	16.6
CCCn1c(=N)n(CC(=O)c2cccs2)c2ccccc21	-2.14
COc1cc(-c2nc3ccccn3c2NCc2ccccc2)ccc1SC1CCCCC1.O=C(O)C(F)(F)F	9.85
COC(=O)c1ccc(CSc2nnc(NC(=O)c3cc4c(s3)CCCC4)s2)cc1	7.36
Cc1ccc(-n2c(C)nnc2SCC(=O)N(C)C2CCS(=O)(=O)C2)cc1 (stereo not drawn)	15.8
O=C(NC(=S)N1CCc2ccccc21)c1ccccc1	8.35
CCOC(=O)CNC(=O)CSc1nccn1Cc1ccco1	10.9
COc1cc(C)c(NC(=O)C2CCN(S(=O)(=O)c3cccs3)CC2)cc1OC	-9.17
Cn1c(C2=C(O)CN(c3ccc4c(c3)OCCO4)C2=N)nc2ccccc21	-1.57
CSc1sc(-c2ccnc(SCCS(C)(=O)=O)n2)c(-c2ccccc2)c1C#N	4.72
Cc1cc(C)cc(C(=O)NCC(=O)NCc2ccc(S(N)(=O)=O)cc2)c1	6.79
O=C(CSc1nnnn1-c1ccc(Cl)cc1)NNC(=O)c1ccc([N+](=O)[O-])cc1	-9.45
CCN1C(=O)c2cccc3c(NC(=O)c4ccc(S(=O)(=O)N(C)C)cc4)ccc1c23	-6.2
COc1ccc(OC)c2c(C)cc(N3CCCN(C)CC3)nc12	11
O=C(NC1CCCC1)C1CCC(CNS(=O)(=O)c2ccccc2)CC1 (stereo not drawn)	15.9
C=CCn1c(COc2ccccc2)nnc1SC(C)C(=O)N/N=C/c1cc(Cl)ccc1O (stereo not drawn)	7.57
Cc1ccc2c(C(=O)CN3CCSCC3)c(C)[nH]c2c1	14.4
CC(C)C1COC(c2cccn2Cc2ccccc2Cl)=N1 (stereo not drawn)	11.9
COc1ccc(C(=O)N2CCN(S(=O)(=O)c3ccccc3)CC2)c(OC)c1	-8.79
